# Out of some 310,000 compounds screened, about 14,000 (4.5%) showed an effect of 50% or more. The effect is printed as a negative number. Some of the results follow.
# Target: human ether-à-go-go-related gene (hERG) potassium channel (human, UniProt Q12809)
# Experiment: primary screen, population patch clamp on CHO cells stably expressing hERG
# 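Also: peak tail current of the secondary pulse compared with the same well before compound.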
# Sequence of human ether-à-go-go-related gene (hERG) potassium channel (Q12809 whole entry, looked up): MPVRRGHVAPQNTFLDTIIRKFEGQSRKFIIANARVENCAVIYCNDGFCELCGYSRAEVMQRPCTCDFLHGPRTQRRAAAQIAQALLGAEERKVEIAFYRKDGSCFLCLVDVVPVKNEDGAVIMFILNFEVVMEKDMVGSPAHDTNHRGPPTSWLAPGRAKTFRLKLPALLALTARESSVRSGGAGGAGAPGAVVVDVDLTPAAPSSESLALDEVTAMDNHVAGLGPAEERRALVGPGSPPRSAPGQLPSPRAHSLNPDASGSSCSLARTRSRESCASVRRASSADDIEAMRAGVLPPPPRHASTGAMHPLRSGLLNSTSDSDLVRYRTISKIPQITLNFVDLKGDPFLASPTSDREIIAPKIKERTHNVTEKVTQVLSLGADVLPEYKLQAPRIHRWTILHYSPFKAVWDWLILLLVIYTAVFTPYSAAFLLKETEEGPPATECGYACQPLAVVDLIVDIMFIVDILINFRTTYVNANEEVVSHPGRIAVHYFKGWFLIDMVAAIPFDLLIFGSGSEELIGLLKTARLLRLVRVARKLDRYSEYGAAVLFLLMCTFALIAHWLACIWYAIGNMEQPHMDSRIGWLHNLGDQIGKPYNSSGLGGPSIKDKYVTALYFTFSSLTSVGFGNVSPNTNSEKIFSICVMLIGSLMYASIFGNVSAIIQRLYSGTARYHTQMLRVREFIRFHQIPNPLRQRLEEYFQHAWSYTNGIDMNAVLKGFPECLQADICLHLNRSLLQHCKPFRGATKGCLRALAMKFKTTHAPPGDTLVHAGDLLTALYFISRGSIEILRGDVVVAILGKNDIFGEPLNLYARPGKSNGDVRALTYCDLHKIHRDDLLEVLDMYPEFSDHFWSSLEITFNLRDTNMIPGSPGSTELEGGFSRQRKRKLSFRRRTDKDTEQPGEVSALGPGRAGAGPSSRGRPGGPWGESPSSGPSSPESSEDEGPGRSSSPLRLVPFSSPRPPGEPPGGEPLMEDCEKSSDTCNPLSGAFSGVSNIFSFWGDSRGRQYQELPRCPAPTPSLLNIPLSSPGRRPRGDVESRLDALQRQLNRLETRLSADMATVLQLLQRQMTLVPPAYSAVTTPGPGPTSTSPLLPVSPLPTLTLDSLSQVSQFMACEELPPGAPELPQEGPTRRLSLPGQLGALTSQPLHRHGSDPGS
row,SMILES,"hERG current change (%, negative = inhibition) at 10uM [%]"
1,O=C(O)c1ccccc1Oc1ccc(Oc2ccccc2)cc1,15.7
2,NNC(=O)c1cccc(COc2ccc3c(c2)CCC3)c1,-0.713
3,O=C1NC(=O)N(c2ccccc2)C(=O)/C1=C/c1ccc(Sc2ccccc2)o1,18.6
4,Cc1cc(Cl)ccc1OCC(=O)N1CCN(c2ncccn2)CC1,-12
5,CN(C)CCCNC(=O)c1cc2sc3ccccc3c2s1.Cl,-64.7
6,COc1ccccc1CNC(=O)CSc1ccc(-c2ccncc2)nn1,-25.1
7,Cc1ccc(CC(CC(=O)O)C(=O)NC2CCCCC2)cc1 (stereo not drawn),-8.44
8,CCOC(=O)CN1N=C(/C=C/c2ccc(C)cc2)CCC1=O,17.5
9,O=C(C1=C(O)C(=O)N(c2ncccn2)C1c1ccc(Cl)c(Cl)c1)c1ccco1 (stereo not drawn),3.56
10,COC(=O)C1C(=O)c2c([nH]c(C(=O)OC3CCCCC3)c2C)CC1C (stereo not drawn),-0.668
11,O=C(O)c1ccc2c(c1)C(=O)N(c1cc([N+](=O)[O-])ccn1)C2=O,21.5
12,O=C(Cn1c(=O)oc2ccccc21)N(Cc1ccccc1)C1CCS(=O)(=O)C1 (stereo not drawn),-9.83
13,c1ccc(CCc2nn3c(Cn4nnc5ccccc54)nnc3s2)cc1,-23.5
14,COCCN1C(=O)N[C@@H](c2cccs2)C(C(=O)OC)=C1C,16.2
15,O=C(c1ccc(-c2cccc(C(F)(F)F)c2)o1)N1CCN(c2ccccc2O)CC1,17.1
16,CCN(CC(=O)Nc1cc(Cl)ccc1C)C(=O)COc1ccccc1F,9.58
17,Cc1ccccc1C(=O)N1CCC(C(=O)N2CCCc3ccccc32)CC1,-1.08
18,Cc1cccc(-n2nc([N+](=O)[O-])c(=NC3CCN(Cc4ccccc4)CC3)n2O)c1,-66.8
19,O=c1c2cn[nH]c2nc(SCc2ccc3c(c2)OCCO3)n1-c1ccccc1,2.13
20,CC(=O)Oc1cccc(/C=c2\sc3nc(-c4ccco4)nn3c2=O)c1,3.41
21,Cc1n[nH]c(=O)nc1NCc1ccc(Cl)cc1,4.1
22,CC1=NN(c2ccc(S(=O)(=O)O)cc2Cl)C(=O)C1,27.8
23,O=C1C2(c3ccccc3)CN(CCCO)CC1(c1ccccc1)CN(CCCO)C2,-50.4
24,O=C(CSc1ccc2c(c1)OCCO2)Nc1ccc(Cl)cn1,24.3

# — paper PMC4336329 (PLoS ONE, 2015)
